Test results: PubChem BioAssay AID720708 (National Center for Advancing Translational Sciences (NCATS), 2013)
Among all 360,000 compounds or so, about 660 (0.18%) were called active. This list was built around the results that the source calls inconclusive (neither active nor inactive); the mix of calls is not that of the screen. Calls follow the shape of the dose curve; as a rule, active = well fitted inhibition curve with a large enough effect; inconclusive = small, poorly fitted or top-dose-only effect; inactive = no such curve, though single readings can be large or run the other way. Potencies of inconclusive entries are left out as doubtful fits.
% is scaled to controls: 0 for no effect and ±100 for the full control effect; potency is read from the fitted curve at half-maximal effect; tags tell the direction and shape of the fitted curve.
Also: nearly all actives have a fitted effect of over 45% in size.

Each compound was assayed against Rap guanine nucleotide exchange factor 4 (Homo sapiens) (UniProt Q8WZA2) (assay: qHTS for Antagonist of cAMP-regulated guanine nucleotide exchange factor 2 (EPAC2): primary screen). Conditions: EPAC2 GEF exchange of Rap1B-BODIPY-GDP, fluorescence; activity, negative = inhibition: at 114 µM (top of the series) unless noted.
Chain of UniProt Q8WZA2 (Q8WZA2 whole entry, looked up): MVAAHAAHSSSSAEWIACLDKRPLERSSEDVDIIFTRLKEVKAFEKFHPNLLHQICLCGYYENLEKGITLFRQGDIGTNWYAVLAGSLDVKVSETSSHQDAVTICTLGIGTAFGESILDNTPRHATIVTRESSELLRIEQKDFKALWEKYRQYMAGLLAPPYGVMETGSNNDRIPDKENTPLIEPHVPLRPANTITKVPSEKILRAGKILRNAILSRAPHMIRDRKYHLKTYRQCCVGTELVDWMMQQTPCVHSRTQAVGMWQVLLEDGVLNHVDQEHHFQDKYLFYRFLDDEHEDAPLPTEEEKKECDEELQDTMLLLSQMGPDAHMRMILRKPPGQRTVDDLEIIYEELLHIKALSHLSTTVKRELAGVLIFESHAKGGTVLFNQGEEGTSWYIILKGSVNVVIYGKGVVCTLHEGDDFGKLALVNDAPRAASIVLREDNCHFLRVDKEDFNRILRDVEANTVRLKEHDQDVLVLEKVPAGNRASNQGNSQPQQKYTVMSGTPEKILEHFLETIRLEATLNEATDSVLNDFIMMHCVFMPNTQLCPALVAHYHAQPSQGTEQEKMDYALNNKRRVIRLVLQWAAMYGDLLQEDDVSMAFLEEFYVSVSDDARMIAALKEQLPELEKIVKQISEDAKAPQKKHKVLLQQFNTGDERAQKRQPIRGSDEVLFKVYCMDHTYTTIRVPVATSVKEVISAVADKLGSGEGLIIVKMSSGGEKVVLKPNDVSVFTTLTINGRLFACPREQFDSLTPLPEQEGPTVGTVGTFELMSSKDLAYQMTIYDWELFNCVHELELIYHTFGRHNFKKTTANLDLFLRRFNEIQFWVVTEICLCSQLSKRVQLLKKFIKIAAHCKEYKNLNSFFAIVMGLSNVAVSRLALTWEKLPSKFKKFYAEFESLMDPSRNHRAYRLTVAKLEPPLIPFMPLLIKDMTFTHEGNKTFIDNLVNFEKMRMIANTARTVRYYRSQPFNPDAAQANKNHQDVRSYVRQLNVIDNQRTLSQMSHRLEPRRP
`N#C/C(=N\Nc1cccc(C(F)(F)F)c1)C(=O)c1ccsc1` was tested, and the Potency was inconclusive [inhibitor, partial curve]. In the case of `O=S(=O)(Nc1cc(Cl)ccc1N1CCOCC1)c1ccccc1Cl`, the Potency is reported as inconclusive [inhibitor, partial curve]. `Cc1ccc(OCC(=O)Nc2ccc3c(c2)nc(CCN2CCCCC2)n3C)cc1` was tested, and the “activity, negative = inhibition” value was inactive: -2.4%. For `CC1(Cc2ccc(Cl)cc2)C(=O)Nc2ccc(-c3cccnc3)cc21` (configuration not stated), the Potency was active: 50.1 µM. With `CC(C)Cc1ccc(CN2C(C(C)C)C(=O)N(Cc3cn(CCC4OCCO4)nn3)CCS2(=O)=O)cc1` (configuration not stated) the Potency was inconclusive [inhibitor, single point]. In the case of `[O-][n+]1cccc2cccc(O)c21`, the “activity, negative = inhibition” value is reported as inactive: 9.1%. With `COc1ccc(C(=O)CSc2nc(C(C)(C)C)nc3ccccc23)cc1` the Potency was inconclusive [inhibitor, full curve]. `COc1ccc(-c2sc3ccccc3c2-c2ccc(OC)cc2F)cc1` was tested, and the activity, negative = inhibition was inconclusive: -17.1% [inhibitor]. `CCCCc1c(-c2ccccc2OC)ncn1CCc1cccc(F)c1` was tested, and the Potency was inconclusive [inhibitor, partial curve, poor fit]. For `N#CC(c1nc2ccccc2nc1OCCO)S(=O)(=O)c1ccccc1` (configuration not stated), the Potency was inconclusive [inhibitor, partial curve]. For `O=C1Nc2cc(C(=O)NCCN3CCCCCC3)ccc2S/C1=C/c1ccccc1F`, the “activity, negative = inhibition” value was inactive: 10.8%. In the case of `O=C(O)CCc1ccc(-c2ccc(Br)cc2)n1-c1ccc(O)cc1`, the Potency is reported as active: 50.1 µM. `CC(C)c1ccc(/C=C/C(=O)NC(=S)Nc2ccc(CN3CCOCC3)cc2)cc1` was tested, and the “activity, negative = inhibition” value was inactive: -13.9%. With `Cc1ccc(C)c(S(=O)(=O)NC(C)CCc2ccccc2)c1` (configuration not stated) the Potency was inconclusive [inhibitor, partial curve]. For `O=C(CCCSc1ccc(Cl)cc1)Nc1cc(S(=O)(=O)N2CCOCC2)ccc1O`, the “activity, negative = inhibition” value was inactive: -18.4%. In the case of `O=C(O)c1cc2nc(-c3ccccc3)cc(-c3ccccc3)n2n1`, the Potency is reported as inconclusive [inhibitor, single point]. For `O=C(O)c1cccc(-c2ccc(/C=N/Nc3ccc([N+](=O)[O-])cc3)o2)c1`, the “activity, negative = inhibition” value was inactive: -13.9%. For `O=S(=O)(Nc1ccc(O)c2ccccc12)c1ccc(OC(F)(F)F)cc1`, the Potency was inconclusive [inhibitor, partial curve, poor fit]. For `COc1ccccc1NS(=O)(=O)c1ccc(-c2cc(C)no2)s1`, the Potency was inconclusive [inhibitor, partial curve, poor fit]. With `Cc1cccc(/C=C(\C(=O)O)c2ccc(S(=O)(=O)N3CCCC3)s2)c1` the “activity, negative = inhibition” value was inactive: -3.62%. For `COc1ccc(CNC(=O)C[C@H]2C[C@H](C(=O)N3CCCCC3)[C@@]3(CCc4ccccc4)c4[nH]c5ccc(Cl)cc5c4CCN3C2=O)cc1OC`, the “activity, negative = inhibition” value was inactive: 2.45%. In the case of `COc1cccc2c1C(=O)c1c(O)c3c(c(O)c1C2=O)CC(O)(C(C)=NNC(=O)c1ccc(Cl)c(Cl)c1)CC3OC1CC(N)C(O)C(C)O1` (configuration not stated), the Potency is reported as inconclusive [inhibitor, single point]. For `CCOC(=O)/C=C(\C)Sc1cc(O)c2ccccc2c1O`, the Potency was active: 44.7 µM. In the case of `COc1ccc(/C=C2\SC(=S)NC2=O)cc1OS(=O)(=O)c1ccc(NC(C)=O)cc1`, the Potency is reported as active: 50.1 µM. `COC(=O)[C@H](CC(C)C)NC(=O)CC[C@H]1O[C@@H](n2ccc(=O)[nH]c2=O)[C@H](O)[C@@H]1O` was tested, and the Potency was inconclusive [inhibitor, single point]. `COc1cc(Br)c(Br)c(Br)c1N` was tested, and the Potency was inconclusive [inhibitor, full curve, poor fit]. For `CC(=O)c1ccc(OCc2nnn(CC(=O)NS(=O)(=O)c3ccc(C)cc3)c2-c2ccccc2)cc1`, the Potency was inconclusive [inhibitor, partial curve]. In the case of `O=C(NC1CCCCC1)C(c1cc2ccccc2o1)n1c(=O)c(-c2ccco2)nc2ccccc21` (configuration not stated), the “activity, negative = inhibition” value is reported as inactive: -8.44%. In the case of `CP(=O)(Nc1cc(Cl)ccc1Cl)c1nc2c(s1)CCCC2` (configuration not stated), the Potency is reported as inconclusive [inhibitor, partial curve]. For `CCOc1cc(S(=O)(=O)Nc2ccccc2CC)ccc1Cl`, the Potency was inconclusive [inhibitor, partial curve]. With `Oc1cc2c(cc1C(c1ccc(Cl)c(Cl)c1)N1CCCC1)OCO2` (configuration not stated) the Potency was inconclusive [inhibitor, partial curve]. In the case of `Cc1cc(C)n(-c2nc(SCCN3CCOCC3)c3c4c(sc3n2)CCCC4)n1`, the activity, negative = inhibition is reported as inconclusive: -17.2% [inhibitor]. `COc1cccc(C=C(C(C)=O)C(=O)c2ccccc2)c1` was tested, and the Potency was inconclusive [inhibitor, full curve, poor fit]. For `COc1ccc(Cl)cc1NC(=S)NNC(=O)c1cccs1`, the Potency was inconclusive [inhibitor, full curve]. In the case of `CCC(C(=O)O)n1nc(-c2ccccc2)c2cc(Cl)ccc21` (configuration not stated), the Potency is reported as inconclusive [inhibitor, partial curve]. In the case of `CC1(C)CC(NCc2ccccc2)CCO1` (configuration not stated), the “activity, negative = inhibition” value is reported as inactive: 1.63%. With `O=C(O)c1cccc2c(-c3ccccc3)c(-c3ccccc3)[nH]c12` the Potency was inconclusive [inhibitor, partial curve]. `O=C(Nc1ccccc1Oc1ccccc1)C1=COCCO1` was tested, and the Potency was inconclusive [inhibitor, partial curve]. With `CCc1nc2ccc(C(=O)N3CCN(c4cc(C)ccc4C)CC3)cc2nc1CC` the Potency was inconclusive [inhibitor, full curve, poor fit]. In the case of `CC(C)(C)c1nc(-c2ccccc2)nc2c1OCCC2`, the Potency is reported as inconclusive [inhibitor, partial curve]. In the case of `C=C[C@H]1C(C(=O)OCC)=CC[C@@H](c2ccccc2)N1S(=O)(=O)c1ccc(C)cc1`, the Potency is reported as inconclusive [inhibitor, single point]. `Cc1cc2oc(=O)cc(CN3CCCCC3C)c2cc1C(C)C` (configuration not stated) was tested, and the Potency was inconclusive [inhibitor, partial curve]. `CC1CCCCN1C(=O)c1ccc(C(=O)Nc2ccc(F)cc2)cc1` (configuration not stated) was tested, and the “activity, negative = inhibition” value was inactive: 2.03%. In the case of `COc1ccc(OCCOC(=O)c2cc(S(=O)(=O)N3CCOCC3)c(Cl)cc2Cl)cc1`, the Potency is reported as inconclusive [inhibitor, single point]. `Cc1ccc(C(=O)NC(=S)N(C)C2CCCCC2)cc1` was tested, and the “activity, negative = inhibition” value was inactive: -2.59%. For `O=C(COc1ccccc1/C=C\c1[nH]c(=O)[nH]c(=O)c1[N+](=O)[O-])Nc1ccccc1`, the “activity, negative = inhibition” value was inactive: -8.56%. For `CCOC(=O)C1CN(S(=O)(=O)c2ccc(C)cc2)c2ccccc2O1` (configuration not stated), the Potency was inconclusive [inhibitor, partial curve]. For `COc1cc(C)c(C(=O)Oc2cc(C)c(C(=O)O)c(O)c2C)c(OC)c1C`, the Potency was inconclusive [inhibitor, full curve]. For `O=C(OCc1ccccc1)c1c(-c2ccccc2)oc2c1C(OCCO)CCC2` (configuration not stated), the Potency was inconclusive [inhibitor, partial curve]. For `COc1ccc(NC(=O)Nc2ccc3c(c2)C(=O)N([C@H](C)CO)C[C@H](C)[C@@H](CN(C)C(=O)NC2CCCCC2)O3)cc1`, the activity, negative = inhibition was inconclusive: -31% [inhibitor]. In the case of `Clc1ccc(Cn2cccc2C2=NCCO2)cc1`, the Potency is reported as inconclusive [inhibitor, full curve]. `NNC(=O)c1csc(-c2ccc(C(F)(F)F)cc2Cl)n1` was tested, and the “activity, negative = inhibition” value was inactive: -13.3%. With `CCc1ccc(-c2cc(C)no2)cc1S(=O)(=O)N1CCOc2ccccc21` the Potency was inconclusive [inhibitor, full curve, poor fit]. With `COc1cc(OC)nc(Oc2cccc(Cl)c2C)n1` the Potency was inconclusive [inhibitor, partial curve]. In the case of `CN(CC(=O)NCCc1ccc(F)cc1)Cc1cccc(Cl)c1`, the Potency is reported as inconclusive [inhibitor, partial curve]. For `Cc1ccc(S(=O)(=O)N2[C@H](CC(=O)c3ccc(F)cc3)OC[C@@H]2C)cc1`, the “activity, negative = inhibition” value was inactive: -6.31%. With `COc1cccc(C2CC(=O)N3CN(c4ccccc4F)CSC3=C2C#N)c1` (configuration not stated) the Potency was inconclusive [inhibitor, partial curve]. With `C[C@H]1c2cccc(O)c2C(O)=C2C(=O)[C@]3(O)C(O)=C(C(N)=O)C(=O)[C@@H](N(C)C)C3[C@@H](O)C21` (some centres not stated) the “activity, negative = inhibition” value was inactive: 6.47%. `Cc1cccc(/C=N/n2c(-c3ccncc3)n[nH]c2=S)c1` was tested, and the “activity, negative = inhibition” value was inactive: 0.397%. For `N#Cc1c(N2CCCC2)ccc(Br)c1Cl`, the Potency was inconclusive [inhibitor, partial curve]. For `Nc1ccc(SC(F)(F)F)cc1C(=O)c1ccccc1`, the Potency was inconclusive [inhibitor, partial curve]. For `CCOc1ccc(N(CC(=O)Nc2c(C)n(C)n(-c3ccccc3)c2=O)S(=O)(=O)c2ccc(F)cc2)cc1`, the “activity, negative = inhibition” value was inactive: 11.4%. For `CCCCn1nnnc1C(c1ccccc1)N1CCN(c2ccc(F)cc2)CC1` (configuration not stated), the Potency was inconclusive [inhibitor, single point]. In the case of `CC(=O)Oc1ccc(Cn2c(C)c(C(=O)NCc3cccc(C(F)(F)F)c3)sc2=O)cc1`, the Potency is reported as inconclusive [inhibitor, full curve, poor fit]. For `CC(C)CC(C(=O)NC(C)(C)C)N(Cc1ccccc1Cl)C(=O)c1snc(C(N)=O)c1N` (configuration not stated), the Potency was inconclusive [inhibitor, partial curve]. With `O=C(NCC1COc2ccccc2O1)C1CCN(S(=O)(=O)c2ccc(Cl)cc2)CC1` (configuration not stated) the Potency was inconclusive [inhibitor, partial curve]. For `Cc1cccc(Nc2c(-c3ccc(O)cc3)nc3ncccn23)c1`, the Potency was inconclusive [inhibitor, full curve].
